# The list shows a part of the results.
# B1: AidA (Burkholderia cenocepacia) (protein)
# chain: MSRVTDVLVSFDTETILKKYPNPSKNPAAPTLIDWRYVYMVTNQDNVISGQAGGELDLKAQVGDLIRWRETSLSLGFENQVVFYKFIGNVGNDLISTPTPRVAEASIPVPNTSKPEVPTCQKVANYYWSSECLKVGRVTYHFQFQIIDRNCQSQGCFSWDPFISIHN
# Columns and labels:
# Assay in all cases: glycan array binding signal (z-score within array); higher = stronger binding
# Details in all cases: glycan notation: IUPAC condensed, linker removed
# Glc(b1-6)Glc = molecular target: Glc(b1-6)Glc
# Outline: (§1)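 Glycan array data came from 3228 arrays in the Consortium for Functional Glycomics database, and only arrays with an available protein sequence were kept. Glycan names were put into IUPAC-condensed notation, and columns mapping to the same glycan were averaged. The binding signal is a within-array Z-score, averaged across arrays of one protein sequence run at different concentrations or buffers and across linkers. A negative Z-score can be read as non-binding.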
# GlcA(b1-3)Gal = molecular target: GlcA(b1-3)Gal
# Outline: as §1
# GlcA(b1-3)GlcNAc = molecular target: GlcA(b1-3)GlcNAc
# Outline: as §1
# GlcA(b1-6)Gal = molecular target: GlcA(b1-6)Gal
# Outline: as §1
# [1] = molecular target: GlcA3S(b1-3)Gal(b1-4)GlcNAc(b1-2)Man
# Outline: as §1
# [2] = molecular target: GlcA3S(b1-3)Gal(b1-4)GlcNAc(b1-3)Gal(b1-4)Glc
# Outline: as §1
# [3] = molecular target: GlcNAc(a1-3)Gal(b1-4)GlcNAc
# Outline: as §1
# [4] = molecular target: GlcNAc(a1-4)Gal(b1-3)GlcNAc
# Outline: as §1
# [5] = molecular target: GlcNAc(a1-4)Gal(b1-4)GalNAc
# Outline: as §1
# [6] = molecular target: GlcNAc(a1-4)Gal(b1-4)GlcNAc
# Outline: as §1
# [7] = molecular target: GlcNAc(a1-4)Gal(b1-4)GlcNAc(b1-3)Gal(b1-4)Glc
# Outline: as §1
# [8] = molecular target: GlcNAc(a1-4)Gal(b1-4)GlcNAc(b1-3)Gal(b1-4)GlcNAc
# Outline: as §1
# [9] = molecular target: GlcNAc(a1-4)Gal(b1-4)GlcNAc(b1-3)Gal(b1-4)GlcNAc(b1-3)Gal(b1-4)GlcNAc
# Outline: as §1
# [10] = molecular target: GlcNAc(a1-4)Gal(b1-4)GlcNAc(b1-3)Gal(b1-4)[Fuc(a1-3)]GlcNAc(b1-3)Gal(b1-4)[Fuc(a1-3)]GlcNAc
# Outline: as §1
# [11] = molecular target: GlcNAc(a1-6)Gal(b1-4)GlcNAc
# Outline: as §1
# [12] = molecular target: GlcNAc(b1-2)Gal(b1-3)GalNAc
# Outline: as §1
# [13] = molecular target: GlcNAc(b1-2)Man(a1-3)[GlcNAc(b1-2)Man(a1-6)]Man(b1-4)GlcNAc(b1-4)GlcNAc
# Outline: as §1
# [14] = molecular target: GlcNAc(b1-2)Man(a1-3)[GlcNAc(b1-2)Man(a1-6)]Man(b1-4)GlcNAc(b1-4)[Fuc(a1-6)]GlcNAc
# Outline: as §1
# [15] = molecular target: GlcNAc(b1-2)Man(a1-3)[GlcNAc(b1-4)][GlcNAc(b1-2)Man(a1-6)]Man(b1-4)GlcNAc(b1-4)GlcNAc
# Outline: as §1
# [16] = molecular target: GlcNAc(b1-2)Man(a1-3)[GlcNAc(b1-4)][GlcNAc(b1-2)Man(a1-6)]Man(b1-4)GlcNAc(b1-4)[Fuc(a1-6)]GlcNAc
# Outline: as §1
# [17] = molecular target: GlcNAc(b1-2)[GlcNAc(b1-4)]Man(a1-3)[GlcNAc(b1-2)Man(a1-6)]Man(b1-4)GlcNAc(b1-4)GlcNAc
# Outline: as §1
# [18] = molecular target: GlcNAc(b1-2)[GlcNAc(b1-4)]Man(a1-3)[GlcNAc(b1-4)][GlcNAc(b1-2)Man(a1-6)]Man(b1-4)GlcNAc(b1-4)GlcNAc
# Outline: as §1
# [19] = molecular target: GlcNAc(b1-2)[GlcNAc(b1-4)]Man(a1-3)[GlcNAc(b1-4)][GlcNAc(b1-2)[GlcNAc(b1-6)]Man(a1-6)]Man(b1-4)GlcNAc(b1-4)GlcNAc
# Outline: as §1
# [20] = molecular target: GlcNAc(b1-2)[GlcNAc(b1-4)]Man(a1-3)[GlcNAc(b1-4)][GlcNAc(b1-2)[GlcNAc(b1-6)]Man(a1-6)]Man(b1-4)GlcNAc(b1-4)[Fuc(a1-6)]GlcNAc
# Outline: as §1
# [21] = molecular target: GlcNAc(b1-2)[GlcNAc(b1-6)]Man(a1-6)[GlcNAc(b1-2)Man(a1-3)]Man(b1-4)GlcNAc(b1-4)GlcNAc
# Outline: as §1
# [22] = molecular target: GlcNAc(b1-2)[GlcNAc(b1-6)]Man(a1-6)[GlcNAc(b1-2)Man(a1-3)]Man(b1-4)GlcNAc(b1-4)[Fuc(a1-6)]GlcNAc
# Outline: as §1
# [23] = molecular target: GlcNAc(b1-2)[GlcNAc(b1-6)]Man(a1-6)[GlcNAc(b1-4)][GlcNAc(b1-2)Man(a1-3)]Man(b1-4)GlcNAc(b1-4)GlcNAc
# Outline: as §1
# GlcNAc(b1-3)Fuc = molecular target: GlcNAc(b1-3)Fuc
# Outline: as §1
# GlcNAc(b1-3)Gal = molecular target: GlcNAc(b1-3)Gal
# Outline: as §1
# [24] = molecular target: GlcNAc(b1-3)Gal(b1-3)GalNAc
# Outline: as §1
# GlcNAc(b1-3)Gal(b1-4)Glc = molecular target: GlcNAc(b1-3)Gal(b1-4)Glc
# Outline: as §1
# [25] = molecular target: GlcNAc(b1-3)Gal(b1-4)GlcNAc
# Outline: as §1
# [26] = molecular target: GlcNAc(b1-3)Gal(b1-4)GlcNAc(b1-2)Man(a1-3)[GlcNAc(b1-3)Gal(b1-4)GlcNAc(b1-2)Man(a1-6)]Man(b1-4)GlcNAc(b1-4)GlcNAc
# Outline: as §1
# [27] = molecular target: GlcNAc(b1-3)Gal(b1-4)GlcNAc(b1-2)Man(a1-3)[GlcNAc(b1-3)Gal(b1-4)GlcNAc(b1-2)Man(a1-6)]Man(b1-4)GlcNAc(b1-4)[Fuc(a1-6)]GlcNAc
# Outline: as §1
# [28] = molecular target: GlcNAc(b1-3)Gal(b1-4)GlcNAc(b1-2)[GlcNAc(b1-3)Gal(b1-4)GlcNAc(b1-6)]Man(a1-6)[GlcNAc(b1-3)Gal(b1-4)GlcNAc(b1-2)Man(a1-3)]Man(b1-4)GlcNAc(b1-4)GlcNAc
# Outline: as §1
# [29] = molecular target: GlcNAc(b1-3)Gal(b1-4)GlcNAc(b1-3)Gal(b1-4)GlcNAc
# Outline: as §1
# [30] = molecular target: GlcNAc(b1-3)Gal(b1-4)GlcNAc(b1-3)Gal(b1-4)GlcNAc(b1-2)Man(a1-3)[GlcNAc(b1-3)Gal(b1-4)GlcNAc(b1-3)Gal(b1-4)GlcNAc(b1-2)Man(a1-6)]Man(b1-4)GlcNAc(b1-4)GlcNAc
# Outline: as §1
# [31] = molecular target: GlcNAc(b1-3)Gal(b1-4)GlcNAc(b1-3)Gal(b1-4)GlcNAc(b1-2)Man(a1-3)[GlcNAc(b1-3)Gal(b1-4)GlcNAc(b1-3)Gal(b1-4)GlcNAc(b1-2)Man(a1-6)]Man(b1-4)GlcNAc(b1-4)[Fuc(a1-6)]GlcNAc
# Outline: as §1
# [32] = molecular target: GlcNAc(b1-3)Gal(b1-4)GlcNAc(b1-3)Gal(b1-4)GlcNAc(b1-2)[GlcNAc(b1-3)Gal(b1-4)GlcNAc(b1-3)Gal(b1-4)GlcNAc(b1-6)]Man(a1-6)[GlcNAc(b1-3)Gal(b1-4)GlcNAc(b1-3)Gal(b1-4)GlcNAc(b1-2)Man(a1-3)]Man(b1-4)GlcNAc(b1-4)[Fuc(a1-6)]GlcNAc
# Outline: as §1
# [33] = molecular target: GlcNAc(b1-3)Gal(b1-4)GlcNAc(b1-3)Gal(b1-4)GlcNAc(b1-3)Gal(b1-4)GlcNAc(b1-2)Man(a1-3)[GlcNAc(b1-3)Gal(b1-4)GlcNAc(b1-3)Gal(b1-4)GlcNAc(b1-3)Gal(b1-4)GlcNAc(b1-2)Man(a1-6)]Man(b1-4)GlcNAc(b1-4)GlcNAc
# Outline: as §1
# [34] = molecular target: GlcNAc(b1-3)Gal(b1-4)GlcNAc(b1-3)Gal(b1-4)GlcNAc(b1-3)Gal(b1-4)GlcNAc(b1-2)Man(a1-3)[GlcNAc(b1-3)Gal(b1-4)GlcNAc(b1-3)Gal(b1-4)GlcNAc(b1-3)Gal(b1-4)GlcNAc(b1-2)Man(a1-6)]Man(b1-4)GlcNAc(b1-4)[Fuc(a1-6)]GlcNAc
# Outline: as §1
# [35] = molecular target: GlcNAc(b1-3)Gal(b1-4)GlcNAc(b1-3)Gal(b1-4)GlcNAc(b1-3)Gal(b1-4)GlcNAc(b1-2)[GlcNAc(b1-3)Gal(b1-4)GlcNAc(b1-3)Gal(b1-4)GlcNAc(b1-3)Gal(b1-4)GlcNAc(b1-6)]Man(a1-6)[GlcNAc(b1-3)Gal(b1-4)GlcNAc(b1-3)Gal(b1-4)GlcNAc(b1-3)Gal(b1-4)GlcNAc(b1-2)Man(a1-3)]Man(b1-4)GlcNAc(b1-4)[Fuc(a1-6)]GlcNAc
# Outline: as §1
# [36] = molecular target: GlcNAc(b1-3)Gal(b1-4)GlcNAc(b1-3)Gal(b1-4)GlcNAc(b1-3)Gal(b1-4)GlcNAc(b1-3)Gal(b1-4)GlcNAc(b1-2)Man(a1-3)[GlcNAc(b1-3)Gal(b1-4)GlcNAc(b1-3)Gal(b1-4)GlcNAc(b1-3)Gal(b1-4)GlcNAc(b1-3)Gal(b1-4)GlcNAc(b1-2)Man(a1-6)]Man(b1-4)GlcNAc(b1-4)GlcNAc
# Outline: as §1
# [37] = molecular target: GlcNAc(b1-3)Gal(b1-4)GlcNAc(b1-3)Gal(b1-4)GlcNAc(b1-3)Gal(b1-4)GlcNAc(b1-3)Gal(b1-4)GlcNAc(b1-2)Man(a1-3)[GlcNAc(b1-3)Gal(b1-4)GlcNAc(b1-3)Gal(b1-4)GlcNAc(b1-3)Gal(b1-4)GlcNAc(b1-3)Gal(b1-4)GlcNAc(b1-2)Man(a1-6)]Man(b1-4)GlcNAc(b1-4)[Fuc(a1-6)]GlcNAc
# Outline: as §1
# [38] = molecular target: GlcNAc(b1-3)Gal(b1-4)GlcNAc(b1-3)Gal(b1-4)GlcNAc(b1-3)Gal(b1-4)GlcNAc(b1-3)Gal(b1-4)GlcNAc(b1-2)[GlcNAc(b1-3)Gal(b1-4)GlcNAc(b1-3)Gal(b1-4)GlcNAc(b1-3)Gal(b1-4)GlcNAc(b1-3)Gal(b1-4)GlcNAc(b1-6)]Man(a1-6)[GlcNAc(b1-3)Gal(b1-4)GlcNAc(b1-3)Gal(b1-4)GlcNAc(b1-3)Gal(b1-4)GlcNAc(b1-3)Gal(b1-4)GlcNAc(b1-2)Man(a1-3)]Man(b1-4)GlcNAc(b1-4)[Fuc(a1-6)]GlcNAc
# Outline: as §1
binder,measurement,setting,value
B1,glycan array binding signal (z-score),Glc(b1-6)Glc,-0.459
same,glycan array binding signal (z-score),GlcA(b1-3)Gal,-0.352
same,glycan array binding signal (z-score),GlcA(b1-3)GlcNAc,0.53
same,glycan array binding signal (z-score),GlcA(b1-6)Gal,0.13
same,glycan array binding signal (z-score),[1],-0.041
same,glycan array binding signal (z-score),[2],0.391
same,glycan array binding signal (z-score),[3],0.02
same,glycan array binding signal (z-score),[4],-0.239
same,glycan array binding signal (z-score),[5],-0.963
same,glycan array binding signal (z-score),[6],-0.623
same,glycan array binding signal (z-score),[7],-0.604
same,glycan array binding signal (z-score),[8],0.177
same,glycan array binding signal (z-score),[9],-1.19
same,glycan array binding signal (z-score),[10],0.901
same,glycan array binding signal (z-score),[11],-0.235
same,glycan array binding signal (z-score),[12],-0.437
same,glycan array binding signal (z-score),[13],-0.472
same,glycan array binding signal (z-score),[14],-0.269
same,glycan array binding signal (z-score),[15],-0.187
same,glycan array binding signal (z-score),[16],-0.375
same,glycan array binding signal (z-score),[17],-0.37
same,glycan array binding signal (z-score),[18],-0.343
same,glycan array binding signal (z-score),[19],0.147
same,glycan array binding signal (z-score),[20],-0.624
same,glycan array binding signal (z-score),[21],-0.482
same,glycan array binding signal (z-score),[22],0.418
same,glycan array binding signal (z-score),[23],0.158
same,glycan array binding signal (z-score),GlcNAc(b1-3)Fuc,-0.527
same,glycan array binding signal (z-score),GlcNAc(b1-3)Gal,0.941
same,glycan array binding signal (z-score),[24],-0.191
same,glycan array binding signal (z-score),GlcNAc(b1-3)Gal(b1-4)Glc,-0.186
same,glycan array binding signal (z-score),[25],-0.208
same,glycan array binding signal (z-score),[26],-0.702
same,glycan array binding signal (z-score),[27],-0.074
same,glycan array binding signal (z-score),[28],2.61
same,glycan array binding signal (z-score),[29],0.86
same,glycan array binding signal (z-score),[30],0.354
same,glycan array binding signal (z-score),[31],0.683
same,glycan array binding signal (z-score),[32],0.88
same,glycan array binding signal (z-score),[33],0.41
same,glycan array binding signal (z-score),[34],0.165
same,glycan array binding signal (z-score),[35],0.071
same,glycan array binding signal (z-score),[36],0.816
same,glycan array binding signal (z-score),[37],-0.735
same,glycan array binding signal (z-score),[38],0.207
